Assay results as given in patent USRE47786E1, “Haloalkyl heteroaryl benzamide compounds” (Romark Laboratories, L.C., priority 2009, dated 2019).

Legend:
Type in all cases: cell-based
Adenovirus (Ad5) = assay: Virus yield, Adenovirus (Ad5) in HeLa R19 cells
Rhinovirus (RHV-2) = assay: Virus yield, Rhinovirus (RHV-2) in HeLa R19 cells
Herpesvirus (HSV-1) = assay: Virus yield, Herpesvirus (HSV-1) in Hep-2 cells
Influenza A (PR8) = tested on: Influenza A (PR8)
[1] = tested on: Paramyxovirus (Sendai virus); assay: Virus yield, Paramyxovirus (Sendai virus) in 37RC cells
Rotavirus (WAG8P1) = assay: Virus yield, Rotavirus (WAG8P1) in MA104 cells
Rotavirus (Simian SA11) = assay: Virus yield, Rotavirus (Simian SA11) in MA104 cells
Rhabdovirus (VSV) = conditions: MA104 cells
Coronavirus (CCoV) = assay: Virus yield, Coronavirus (CCoV) in A72 cells
[2] = tested on: Respiratory Syncytial Virus (RV-A2); assay: Virus yield, Respiratory Syncytial Virus (RV-A2) in HeLa cells

Row | Structure (SMILES) | Virus Yield ID50 (Adenovirus (Ad5)) [µg/mL] | Virus Yield ID90 (Adenovirus (Ad5)) [µg/mL] | Virus Yield ID50 (Rhinovirus (RHV-2)) [µg/mL] | Virus Yield ID90 (Rhinovirus (RHV-2)) [µg/mL] | Virus Yield ID50 (Herpesvirus (HSV-1)) [µg/mL] | Virus Yield ID90 (Herpesvirus (HSV-1)) [µg/mL] | Virus Yield ID50 (Influenza A (PR8)) [µg/mL] | Virus Yield ID90 (Influenza A (PR8)) [µg/mL] | Virus Yield ID50 [1] [µg/mL] | Virus Yield ID90 [1] [µg/mL] | Virus Yield ID50 (Rotavirus (WAG8P1)) [µg/mL] | Virus Yield ID90 (Rotavirus (WAG8P1)) [µg/mL] | Virus Yield ID50 (Rotavirus (Simian SA11)) [µg/mL] | Virus Yield ID90 (Rotavirus (Simian SA11)) [µg/mL] | Virus Yield ID50 (Rhabdovirus (VSV)) [µg/mL] | Virus Yield ID90 (Rhabdovirus (VSV)) [µg/mL] | Virus Yield ID50 (Coronavirus (CCoV)) [µg/mL] | Virus Yield ID90 (Coronavirus (CCoV)) [µg/mL] | Virus Yield ID50 [2] [µg/mL]
1 | CC(=O)Oc1ccccc1C(=O)Nc1ncc(C(F)(F)F)s1 [Compound 1] | 0.1 | 3.5 | 9 | >50 | 0.2 | 2 |  |  |  |  |  |  |  |  |  |  |  |  | 
2 | CC(=O)Oc1ccccc1C(=O)Nc1nc(C(F)(F)F)cs1 [Compound 3] |  |  |  |  | 0.03 | 1.5 |  |  |  |  |  |  |  |  |  |  |  |  | 
3 | O=C(Nc1nc(C(F)(F)F)cs1)c1ccccc1O [Compound 4] |  |  |  |  | 0.15 | 1.5 |  |  |  |  |  |  |  |  |  |  |  |  | 
4 | CC(=O)Oc1ccccc1C(=O)Nc1nnc(C(F)(F)F)s1 [Compound 5] |  |  |  |  |  |  | 3 | 9 | 3 | 9 |  |  |  |  |  |  |  |  | 
5 | O=C(Nc1nnc(C(F)(F)F)s1)c1ccccc1O [Compound 6] |  |  |  |  | 0.2 | 1 |  |  |  |  |  |  |  |  |  |  |  |  | 
6 | CC(=O)Oc1ccccc1C(=O)Nc1ncc([N+](=O)[O-])s1 [Nitazoxanide] | 1.5 | 15 | 2.5 | >50 | 0.025 | 0.5 | 1 | 7 | 1 | 6 | 10 | 40 | 1 | 10 |  |  |  |  | 
7 | O=C(Nc1ncc([N+](=O)[O-])s1)c1ccccc1O [Tizoxanide] | 0.2 | 0.3 | 0.3 | 40 | 2 | 5 | 1 | 9 | 0.5 | 5 | 1 | 15 | 0.5 | 4 | 2 | 15 | 1 | 1.5 | 0.5
